This is one part of the list.
Each sequence was assayed on PfAP2-HC AP2 domain (GST-tagged) (assay: gcPBM binding intensity (ln(normalized median fluorescence intensity)); higher = stronger DNA binding).
In short: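 GST-tagged P. falciparum DNA-binding domains produced in E. coli were incubated for 1 h on an Agilent 4 × 180k array of primer-extended double-stranded 36-bp intergenic genomic probes with negative controls. Binding intensity is the highest Masliner-normalised natural-log median intensity across replicate spots of either probe orientation, with bound protein detected by Alexa488 anti-GST antibody at 488 nm.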

Row | Sequence | gcPBM binding intensity (ln)
1 | AAAAATTCTTCCCAAGCATGCGCGCGTAAAATATTT [TGCATGCA_site77] | 9.56
2 | AAATTTTTTATTAGTAGTACGCATAAATATATGTAT [XGTACX_site1934] | 9.53
3 | AAAAAAAAAAGAAAAGGTACACAGAATATATATATA [XGTACX_site6914] | 9.77
4 | AAAAAAATAAGACACACACACAAAAAAATAAAAATA [CACACA_site6357] | 10.6
5 | ATTATGAATTTTAATTGTACATTATTATAGAATGTA [XGTACX_site619] | 9.41
6 | AGTTATTTTTATATTTCACACACATATACTTTTACA [CACACA_site9357] | 10.1
7 | AATAATTCTTAAAGGTGTACAATATGTATATAAGAA [XGTACX_site595] | 9.99
8 | CATGAATATTTATACATGCACACTAAAATAAAGAAT [CACACA_site2412] | 9.84
9 | GAGGGTATAATAAAAGCACACACAAAGATATAAATA [CACACA_site9087] | 10.2
10 | TATATATATATATACACACACACACCCCAAAGCGTA [CACACA_site64] | 11.1
11 | ACATTTTGTAAAGAATGTACATATATATATATATTC [XGTACX_site8004] | 9.56
12 | AAAAAATGCGACATGTGTACACATATATATATATAT [XGTACX_site1679] | 10.2
13 | GAAAATATTACATACACGCACACATTAATATATTTA [CACACA_site2604] | 10.3
14 | ATATATATATCAAAATGTACAAAAATAGAATTTAAA [XGTACX_site8292] | 9.7
15 | CAGTAGTTTTTATGGGTGCAAAACATATATATAACA | 9.67
16 | CCTTTCCTAGCACATGCACACAAAAAAAAAAAAAAA [CACACA_site8396] | 9.51
17 | AAAATTAAAATATCACGTACGAAGAAAAAATTAAGA [XGTACX_site6437] | 9.87
18 | TACACCCACCAACACACACACACACTAATAAAAAAA [CACACA_site8060] | 11.3
19 | ATCTTTTTACTTAATACACACACACCCAAAAAAAAA [CACACA_site8221] | 10.7

Row | Sequence | gcPBM binding intensity (ln)
20 | AAACGGCTATTAAAATGTACATGTAAATATATTAAA [XGTACX_site918] | 9.73
21 | AATACATATGGGTGTACACATTATATATATATATAT [CACACA_site4601] | 9.84
22 | TATATATATATAGATGCATGCAATTACATATAACAA [TGCATGCA_site118] | 9.94
23 | TTGTGTACATATTAAGTGCATATATATATATATATA | 10.4
24 | GCATATGATGAGCATATAATCATAAGAAAAAAAAAA [CACACA_negctrl_site701] | 9.47
25 | AATAAATAGTAGTAGGTGCTACTATATTATATATAT [GTGCAC_site9452] | 9.75
26 | TATGTAATAATAAACGGTACACTATATTGTATGAAA [XGTACX_site4648] | 9.79
27 | ATTTTCTATATCTTTCAACACACAAATTTTTTTTTC [CACACA_site7918] | 9.74
28 | TACATCAAACAAGTATGTACATATATATATATATAT [XGTACX_site7415] | 9.67
29 | AACACTTCATACACGTGTACAAATATAATATAGACA [XGTACX_site5671] | 10.2
30 | GGAAATAATATTATTACACACCAAAATGTATAAAAA [CACACA_site4036] | 9.72
31 | AAAATATTCACGTGTACATATATATATATATATTAT [TGCATGCA_negctrl_site192] | 9.95
32 | ATATTAAAATTAAACGCATGCATATATTATAAAAGA [TGCATGCA_site231] | 9.74
33 | CTAATTAATGGGTACATACACACATATATACATACA [CACACA_site743] | 9.87
34 | TTCTGTATAACACAAATTTTTTTTTATTCACTCTGT [TGCATGCA_negctrl_site410] | 9.74
35 | TTTTTATCAAATAAATGTACACATATTAAATGAAAT [XGTACX_site555] | 9.4
36 | AATAATATAACAGAACAAAACTAAATATACACATAT [TGCATGCA_negctrl_site31] | 9.94
37 | TATTTCATAATAAATTGTACGCGTAGAAAACCATGA [XGTACX_site7506] | 9.99
38 | AAAAAAAAAAAAAACACACACACACGCATACAAAAT [CACACA_site6794] | 10.6

Row | Sequence | gcPBM binding intensity (ln)
39 | TTATATCTTATAAAATGTACATAAAATATATAATAT [XGTACX_site7647] | 9.43
40 | ATATTTTTCTTAAGTACACACTAAATAGAAACTAAA [CACACA_site4191] | 9.56
41 | ATTAATTATATAATATGTACATATTACAAATATATA [XGTACX_site1478] | 9.58
42 | TTAATGTTATATGTGTGTACATATAAGTTTAGTAAA [XGTACX_site4651] | 9.89
43 | GAGAAAAATAAATACACACACATAAATAAATACATA [CACACA_site5102] | 10.9
44 | TATGTATATTTTAATTGTACGTGTATGGTTGTAAAT [XGTACX_site8738] | 9.6
45 | TGATTAATAATTTTCTTCATACATTAAACATCTTTT [TGCATGCA_negctrl_site342] | 9.43
46 | TTTTTTTTTTCATTAACACACATAAATATATATATA [CACACA_site5759] | 9.63
47 | CACTAATAGTGGATTACACACATATATCTGTATTTA [CACACA_site5403] | 9.76
48 | TTTGTAAGAAATAAATGTACAAAAATTAATTTTTAT [XGTACX_site8983] | 9.45
49 | GACATAAAATTCAAAGTGCATAAATAAAATAAACCC | 9.76
50 | TTTTTTTTTTTTTTCTGTACAAATTAAATCTACATA [XGTACX_site8285] | 9.25
51 | ATATTTAAAAAATGATGTACAAAAATGTAGTCACAC [XGTACX_site6208] | 9.73
52 | GAAATTAAATGACATACACACTATATTATAGATTTT [CACACA_site7468] | 9.82
53 | TATTTTAATGAATTCACACATATAATTTATTTTATA [CACACA_site4538] | 9.49
54 | ATAGTATCTGGTAGCTGTACGAGTCGTAGAGTGTAA [XGTACX_site4936] | 9.69
55 | ATATAAAACTAATTTCTTTTTCTCCTTTTATTTTGT [CACACA_negctrl_site1251] | 9.65
56 | AATATATATTAATAAAGTACAGGAAATATTTTTACC [XGTACX_site7052] | 9.73
57 | AAAATACATAGACACACACACACACGGATATAAATA [CACACA_site7643] | 11.2
